Some of the results follow. At the low end of the ranking, values are background and their order means little. The protein was read in a cell extract, so binding may be indirect.

The target in the experiment is T1, HNF4alpha8 (COS-7 nuclear extract) (UniProt P41235-5).
T1 sequence: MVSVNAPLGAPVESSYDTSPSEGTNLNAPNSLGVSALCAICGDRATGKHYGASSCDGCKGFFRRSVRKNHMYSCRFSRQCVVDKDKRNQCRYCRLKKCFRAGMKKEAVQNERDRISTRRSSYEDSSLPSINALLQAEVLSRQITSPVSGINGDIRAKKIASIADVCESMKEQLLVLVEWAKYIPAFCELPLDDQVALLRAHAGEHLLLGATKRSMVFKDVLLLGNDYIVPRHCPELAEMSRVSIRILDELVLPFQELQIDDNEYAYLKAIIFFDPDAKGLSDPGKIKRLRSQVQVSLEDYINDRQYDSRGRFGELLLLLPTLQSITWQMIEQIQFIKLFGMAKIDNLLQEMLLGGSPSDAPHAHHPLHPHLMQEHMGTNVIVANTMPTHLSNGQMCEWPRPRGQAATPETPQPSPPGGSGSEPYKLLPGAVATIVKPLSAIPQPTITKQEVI
Put plainly: protein-binding microarray. The settings on record: COS-7 nuclear extract on double-stranded Agilent 4x180k PBM; binding buffer, salt, pH and temperature not given; high values mean tight binding; double strand, one strand shown; sequences stand for … in …GCCTAGGGAGATTAGAGTATCGGTCGA
Regarding GGCTGCAGAGGTTTCGCAAGGACGTGACCT, the binding signal (log2 normalized intensity) was 3.33.

Regarding CTGGTCAGAAGAAACATGCGATACTTGACC, the binding signal (log2 normalized intensity) was determined as 2.33.

TTCAGAGGACTGCCCAGCTGCATCCTGTGC: the binding signal (log2 normalized intensity) is -0.891.

With ACAACTTTTCCTCTAACCACTTTGAAATAG, the binding signal (log2 normalized intensity) stood at 0.27.

GACGTACGCTCCCAGTATGAGCGGCGCTGA: the binding signal (log2 normalized intensity) was -1.32.

On to AGTCCAAAATCAGTCTCAGTGGGCTAAACA, for which the binding signal (log2 normalized intensity) was -1.2.

Take TCTGGTGGCACACAGAGGACGTCAGGCAGA: the binding signal (log2 normalized intensity) is -1.24.

Consider CTTACTCTCTCCCTCCTCCTTTTTTTCCCC, for which the binding signal (log2 normalized intensity) was 2.82.

Consider AGAATTGGTCCTGGAACTCAAAGGTCAAAT, for which the binding signal (log2 normalized intensity) was determined as 5.75.

GAGCAGGAACCTTGTGGTGGTGAAAGTCAA: the binding signal (log2 normalized intensity) is 0.274.

Turning to GGAGAGGATGGGGACAAAGGTCAAGAAAGC, the binding signal (log2 normalized intensity) amounted to 6.33.

In the case of TCCAGGAATGGAAACCCCTGTAAGTCCAAA, the binding signal (log2 normalized intensity) was found to be 2.82.

As for AAATCCAAAGGTCAACAGCCAGCCTCAAAG, the binding signal (log2 normalized intensity) is 4.08.

As to CTGACTAGAGTGGAGTGAAGTAAGAGTAGC, the binding signal (log2 normalized intensity) was -1.33.

Regarding CCTTTGGCAATATCTCCCAGCTGGAGTCTT, the binding signal (log2 normalized intensity) was -0.263.

Regarding GTCAAAACCACCTATTCTGAAGATTGCTAG, the binding signal (log2 normalized intensity) was -1.43.

As for CAGTGGGAGACAGGCATTAACCCTTTAGTG, the binding signal (log2 normalized intensity) came to 0.965.

GGACTGCAGGGGGCCAAGGGATACCCTGAG: the binding signal (log2 normalized intensity) is -1.25.

For ATATTTACTTATGGTTTGACCCTGCGATAA, the binding signal (log2 normalized intensity) was 3.75.

As for AGAACCAAAGTCCTAGAGTCCCTATTTGCT, the binding signal (log2 normalized intensity) is -1.27.

On to CACTGGGGTCATGGAGCTGGAGGGCAAAGG, for which the binding signal (log2 normalized intensity) was found to be 4.08.

Take GTGTAAACAAGTGAGCATGGCTGTGTTCCA: the binding signal (log2 normalized intensity) amounted to 0.23.

TTGTTCAATAAGCAATACATTGAACTTTGA: the binding signal (log2 normalized intensity) was found to be 8.23.

On to TCTGTGTAGAAATTGTGGCTTGTGTAGTTA, for which the binding signal (log2 normalized intensity) is 1.14.

For the sequence AGCAATTCAAATTCTTTGCCATGACCTTTG, the binding signal (log2 normalized intensity) turned out to be 6.24.

For TATTCCCAGGTTCCAAAGGTCACCCGTATT, the binding signal (log2 normalized intensity) is 7.3.

Take GTGAACTGGAGCAAAGGTCACTCTTGCTAT: the binding signal (log2 normalized intensity) came to 5.01.

With GGGAATGTCACAGGGGCCATGCAGGGCAGG, the binding signal (log2 normalized intensity) is -1.31.

Turning to TACTTTGCTTCCAAGTTATGCAGACCTTTG, the binding signal (log2 normalized intensity) was 2.66.

Take ATCCCAAAGCTTTTTGATTGCTTATAGCTT: the binding signal (log2 normalized intensity) is -1.26.

With CCACATGAATACACATAATGTGCTTATCAG, the binding signal (log2 normalized intensity) is -1.15.

Regarding ACAGCAAAGATGAATCATGTAACCAAAATG, the binding signal (log2 normalized intensity) is -1.33.

Regarding GGGTGCAGGGAGAAGGCAAAAATGCAGGCA, the binding signal (log2 normalized intensity) is -1.26.

On to GAGATCTAAGCGATAAGGAGGAAGGACACT, for which the binding signal (log2 normalized intensity) was -1.31.

For the sequence TGGGAATGCCCTTTATACAGGCATGGAAGT, the binding signal (log2 normalized intensity) was 2.16.

As for CAAAGGTCACGTTCCAGCTGCTTCAGGAGC, the binding signal (log2 normalized intensity) is 3.14.

Regarding TTGATCTTTGTGTACAAAGCCATCAGCACT, the binding signal (log2 normalized intensity) was 0.622.

For CCGAGCAGGACGCTACCCGCTTGGCGTAGG, the binding signal (log2 normalized intensity) was -1.37.

As to TTCTGAGCAAATATTTGGGGTATGTGCTCA, the binding signal (log2 normalized intensity) worked out at 0.925.

Consider AACCAAGATAGTGACGGAGGTGACCTTTGG, for which the binding signal (log2 normalized intensity) turned out to be 7.34.

Regarding AAAGCCCTCAAATACTCTGAGTAAACACAG, the binding signal (log2 normalized intensity) is -1.39.

Regarding ATTTATTTTGTGTGCTAGATACTGGAGATA, the binding signal (log2 normalized intensity) came to 1.02.

AACTCCCAGTCTGTTATCAGAGCTGGAGGA: the binding signal (log2 normalized intensity) was -1.25.

With GGCGGCCGCGCGCAGGGCGGACAGCGCCGC, the binding signal (log2 normalized intensity) was -1.31.

With ATCTCTTTTGTGTTAGAGGGTGGTGGGTGA, the binding signal (log2 normalized intensity) was found to be 1.94.

As for ACACAGATCATATCATTTATTTGCTTAAAA, the binding signal (log2 normalized intensity) was -1.11.

As for ATTTGCCACCAATGCCTCTATGTAGCAATC, the binding signal (log2 normalized intensity) is -1.31.

Consider AAAAATAGGAGACTGTCTTAGGAAAGAACA, for which the binding signal (log2 normalized intensity) is -1.26.

CAAGGACACTGAAAGGCATTCTGCCAACAC: the binding signal (log2 normalized intensity) is -1.27.

Regarding TGGTATGCTAGAGTACTTGGACTTTAACCT, the binding signal (log2 normalized intensity) amounted to 9.56.

Regarding AAGCCTTATCACTGTTTGGCCTATGGGAAA, the binding signal (log2 normalized intensity) worked out at 0.766.

On to TAAAGTTCAGCTTCTCTTGTTTGTGTAACT, for which the binding signal (log2 normalized intensity) was 1.18.

On to AAAGAACAAACTTCCCCTGCAGCTGATCAT, for which the binding signal (log2 normalized intensity) was -0.756.

As to AAGGTTGGTCTTAGGACCACATGAGTAAAC, the binding signal (log2 normalized intensity) amounted to 3.54e-05.

On to TGCAGCGGCATTCTCTGGTCTGCGGTTGTG, for which the binding signal (log2 normalized intensity) was 0.807.

Regarding TTGCTTAAGCATAGCAAAAGTGACCTTTGC, the binding signal (log2 normalized intensity) worked out at 9.23.

For CACCCCAGCAAACAGGTCCTGCTGGTTTGC, the binding signal (log2 normalized intensity) was determined as 0.613.

In the case of TTTCTGAGCAGGATGTCCAGAATGAGTGTG, the binding signal (log2 normalized intensity) came out at 0.0751.

For GTGGTGAGGAAAAGGAGGAGTTTGACCCCA, the binding signal (log2 normalized intensity) was determined as 7.27.

In the case of TCAGTGAAGGCCTCTGATGATTCTAAAGGC, the binding signal (log2 normalized intensity) is -1.22.

With TCCCTAACCCTTCAAGGGCCACTCAGTTGA, the binding signal (log2 normalized intensity) is -1.29.

With ACTGGGTCTTAATAAGATAATAAGTGACCC, the binding signal (log2 normalized intensity) came out at 4.31.

As for TCCTTGATTAAACTTTAGTCAGATTCCTCT, the binding signal (log2 normalized intensity) is 1.65.

As for TCCAAAGGTCACAGTAGGGAAAGTGGGGGG, the binding signal (log2 normalized intensity) worked out at 2.52.

Turning to CCTCTCTCTCCTGGCCTCTGAGATTCGGTG, the binding signal (log2 normalized intensity) was 0.654.

Consider AGGGCCTAGAAGAGTTCCTGACAATTGGCC, for which the binding signal (log2 normalized intensity) was 0.971.

Consider TGAGGCTAAGAGGTGAACACATTCCTCATT, for which the binding signal (log2 normalized intensity) was -1.43.

Turning to GACCAGCATTCTTTCTGCTGCAATTTAAGC, the binding signal (log2 normalized intensity) is -1.1.

As to TGCTCTCTCTCTTTTTCTGAGCCTGGGTCA, the binding signal (log2 normalized intensity) is 2.19.

With TTCTCATCTTATCTAGTTTCCTAGCTCACT, the binding signal (log2 normalized intensity) is -1.37.

On to GCAAGCCAGTCAGAATCTCTCTGTAGGTAA, for which the binding signal (log2 normalized intensity) was -1.39.

In the case of ACAGTGATTGTCACAAGACTGTTATCACAG, the binding signal (log2 normalized intensity) was 0.519.

The values are drawn from article PMC10726135.
